Our source for the switch fluorescence ratio values is the supplement of paper PMC10126150.

Values marked as one replicate rest on one cluster of the flow cell; about a third of the high ones do not repeat.
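Note: ATP exposure 15 min at 22 °C before imaging.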

This series deals with ATP. The series can be described thus: switch fluorescence ratio, 500 uM ATP over buffer (Cy3 cluster intensity, sum of 5 cycles each) (fold (ratio)); higher = stronger signal-on switching upon ATP binding; sequences stand for … in TCGTCGGCAGCGTCAGATGTGTATAAGAGACAGTTTTTTTTTTTTTTTTTTTTTTTTT…TC. As to conditions: aptamer strand: ATP DNA aptamer (quencher-CACCTGGGGGAGTATTGCGGAGGAAGG + anchor), 100 nM annealed; ATP concentration: 500 uM; one replicate. The procedure, abridged:
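Imaging in selection buffer was followed by imaging after 15 min with 500 uM ATP at 22 °C, for Cy3-labelled switching-strand clusters annealed to 100 nM quencher-labelled ATP aptamer on a modified Illumina MiSeq flow-cell. Five of these buffer/ATP cycles ran, separated by NaOH stripping and re-annealing. The fluorescence ratio per cluster is summed target-cycle over summed buffer-cycle Cy3 intensity, averaged per switch-domain sequence; clusters outside 100-1000 RFU were removed.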
For GTATGAGGG, the switch fluorescence ratio came out at 0.994.

Regarding CTCGTTGTGA, the switch fluorescence ratio worked out at 1.04.

As to GGTGAGTCAA, the switch fluorescence ratio stood at 0.995.

On to CAGGCGGGTC, for which the switch fluorescence ratio amounted to 1.03.

Consider TTATCCCATA, for which the switch fluorescence ratio came to 1.04.

Take TCGTTTATGA: the switch fluorescence ratio amounted to 0.981.

For TTTTCTTACA, the switch fluorescence ratio stood at 1.02.

Take GGGTTTTTAA: the switch fluorescence ratio stood at 0.983.

As to CTGACAGTA, the switch fluorescence ratio turned out to be 1.07.

In the case of ATTCGAGTAG, the switch fluorescence ratio was found to be 0.964.

Take GACTCGCTCA: the switch fluorescence ratio stood at 1.01.

With GTAGGATTGA, the switch fluorescence ratio stood at 0.97.

As for ATGCCCTATC, the switch fluorescence ratio was 1.

As to TGGGGTAGAC, the switch fluorescence ratio turned out to be 1.01.

For the sequence AATTTTGTAA, the switch fluorescence ratio was determined as 1.05.

On to AGTTTACACG, for which the switch fluorescence ratio was determined as 0.97.

Consider TCGGACGGTA, for which the switch fluorescence ratio turned out to be 1.24.

As to CGGGCTGCC, the switch fluorescence ratio stood at 1.01.

Regarding AGATGGGCA, the switch fluorescence ratio was determined as 0.914.

With CGTTTGTAAA, the switch fluorescence ratio came out at 0.978.

GTCAGCGGGG: the switch fluorescence ratio stood at 0.951.

For ATTCCATCGA, the switch fluorescence ratio came to 1.02.

Turning to TGAGATAAGA, the switch fluorescence ratio came to 1.

TGGTTATATC: the switch fluorescence ratio was found to be 0.957.

In the case of TAATTATTAC, the switch fluorescence ratio is 1.03.

Regarding TCACCTCCAA, the switch fluorescence ratio amounted to 1.25.

For the sequence TTCGGGAGTA, the switch fluorescence ratio is 0.955.

On to TTCAACACGA, for which the switch fluorescence ratio came to 1.02.

On to CCACTTTTGC, for which the switch fluorescence ratio came out at 1.03.

Consider GACATGGAAG, for which the switch fluorescence ratio turned out to be 1.02.

AAGACGAAAA: the switch fluorescence ratio was 0.982.

Take TGATAATCGA: the switch fluorescence ratio is 1.01.

Regarding CAATCTCC, the switch fluorescence ratio was found to be 1.31.

Regarding GGGGTGCTGA, the switch fluorescence ratio was 1.

For the sequence TGGACGGCCC, the switch fluorescence ratio came out at 1.06.

As to GGGTGCACCG, the switch fluorescence ratio is 1.03.

CGTAGCCTGC: the switch fluorescence ratio worked out at 1.14.

With AATTTTGCCA, the switch fluorescence ratio is 0.987.

On to AGCCGAATGA, for which the switch fluorescence ratio is 0.956.

As to GTTCGCTGGT, the switch fluorescence ratio amounted to 1.02.

With CCTTTAACGA, the switch fluorescence ratio turned out to be 1.06.

With CCCCGGATCA, the switch fluorescence ratio was 1.06.

TTAACGTTGA: the switch fluorescence ratio was 0.939.

For the sequence GATGTAGAA, the switch fluorescence ratio is 0.963.

Consider AATCCTGAAC, for which the switch fluorescence ratio worked out at 1.54.

CAGACTCATT: the switch fluorescence ratio was 1.1.

Turning to AGGCTCGCGA, the switch fluorescence ratio is 1.01.

As to TTCCTAGGC, the switch fluorescence ratio was determined as 1.12.

Take AGGTTATTGG: the switch fluorescence ratio amounted to 1.02.

Regarding TGCGGTATG, the switch fluorescence ratio is 0.983.

For TTAATGGGCT, the switch fluorescence ratio came out at 1.04.

For TTTTCATGT, the switch fluorescence ratio stood at 1.02.

On to TTAGGGCCGG, for which the switch fluorescence ratio is 0.96.

On to AATTGTTATC, for which the switch fluorescence ratio was found to be 0.991.

Take TGTTTGAACA: the switch fluorescence ratio came to 1.03.

Regarding CAACTGCCGG, the switch fluorescence ratio turned out to be 1.05.

As to AAGTCACAAG, the switch fluorescence ratio was 1.02.

As to GTGCGAAAGA, the switch fluorescence ratio was 1.02.

CGATTTACCG: the switch fluorescence ratio is 0.97.

On to TTTCGTATGC, for which the switch fluorescence ratio was found to be 1.06.

In the case of TTCCATTTAT, the switch fluorescence ratio is 1.04.

Consider GGACAAGTGT, for which the switch fluorescence ratio was determined as 1.01.

Turning to TCAAAAATG, the switch fluorescence ratio came to 0.998.

As to CATCAACTA, the switch fluorescence ratio is 1.01.

For CAGTTGGGGC, the switch fluorescence ratio came out at 0.998.

With CTTTCATGTA, the switch fluorescence ratio came out at 1.05.

Regarding TAGTTTCCAC, the switch fluorescence ratio was 1.19.
